The text below walks through data of US7652041B2, “Cinnamide and hydrocinnamide derivatives with kinase inhibitory activity” (Millennium Pharmaceuticals, Inc., priority 2005, dated 2010).

The test system of the assay is A375 cells. Put plainly: Phospho-ERK ELISA assay. The format is cell-based. As to conditions: Homo sapiens, A-375, 3 hours with inhibitor, anti-p44/42MAPK antibody ELISA, normalized for protein content. In short, it runs like this: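 A375 cells treated with Raf kinase inhibitors for 3 hours at 37° C, then fixed, permeabilised with methanol and immunostained with anti-p44/42 MAPK antibody plus HRP secondary. TMB colour read as optical density at 650 nm, normalised to well protein content by BCA assay.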
Background: ELISA stands for enzyme-linked immunosorbent assay.
The IC50 is the concentration that inhibits the measured activity by half. The low end stands for higher potency, the high end for lower potency. On to `C/C(=C\C(=O)Nc1ccc(Cl)c(C(F)(F)F)c1)c1cccc(Oc2ccnc(C3=NCCN3)c2)c1` [Compound B-1, (2E)-N-[4-chloro-3-(trifluoromethyl)phenyl]-3-(3-{[2-(4,5-dihydro-1H-imidazol-2-yl)pyridin-4-yl]oxy}phenyl)but-2-enamide], for which the IC50 is 10 to 25 µM.

For the compound `CC(C)c1cccc(NC(=O)/C=C/c2cccc(Oc3ccnc(C4=NCCN4)c3)c2)c1` [Compound B-2, (E)-3-(3-(2-(4,5-dihydro-1H-imidazol-2-yl)pyridin-4-yloxy)phenyl)-N-(3-isopropylphenyl)acrylamide], the concentration for half-maximal inhibition (IC50) was ≤ 1 µM.

The compound `O=C(/C=C/c1cccc(Oc2ncnc3[nH]cnc23)c1)Nc1ccc(Cl)c(C(F)(F)F)c1` [Compound B-3, (2E)-N-[4-chloro-3-(trifluoromethyl)phenyl]-3-[3-(9H-purin-6-yloxy)phenyl]acrylamide] had an IC50 of 1 to 10 µM.

For `CC(C)(C)c1cccc(NC(=O)/C=C/c2cccc(Oc3ccnc(C4=NCCN4)c3)c2)c1` [Compound B-5, (2E)-N-(3-tert-butylphenyl)-3-(3-{[2-(4,5-dihydro-1H-imidazol-2-yl)pyridin-4-yl]oxy}phenyl)acrylamide], the IC50 is ≤ 1 µM.

`CNC(=O)c1cc(Oc2cccc(/C=C(\C)C(=O)Nc3cccc(C(C)(C)C)c3)c2)ccn1` [Compound B-6, 4-(3-{(1E)-3-[(3-tert-butylphenyl)amino]-2-methyl-3-oxoprop-1-en-1-yl}phenoxy)-N-methylpyridine-2-carboxamide]: the IC50 fell in the range of 1 to 10 µM.

Take `O=C(/C=C/c1cccc(Oc2ccnc(C3=NCCN3)c2)c1)Nc1cccc(C(F)(F)F)c1` [Compound B-7, (2E)-3-(3-{[2-(4,5-dihydro-1H-imidazol-2-yl)pyridin-4-yl]oxy}phenyl)-N-[3-(trifluoromethyl)phenyl]acrylamide]: the IC50 is ≤ 1 µM.

As to `CC/C(=C\c1cccc(Oc2ccnc(C3=NCCN3)c2)c1)C(=O)Nc1ccc(Cl)c(C(F)(F)F)c1` [Compound B-8, (E)-2-(3-(2-(4,5-Dihydro-1H-imidazol-2-yl)pyridin-4-yloxy)benzylidene)-N-(4-chloro-3-(trifluoromethyl)phenyl)butanamide], the IC50 was ≤ 1 µM.

As for `O=C(/C=C/c1cccc(Oc2ccnc(C3=NCCN3)c2)c1)Nc1cc(F)cc(C(F)(F)F)c1` [Compound B-9, (2E)-3-(3-{[2-(4,5-dihydro-1H-imidazol-2-yl)pyridin-4-yl]oxy}phenyl)-N-[3-fluoro-5-(trifluoromethyl)phenyl]acrylamide], the IC50 was ≤ 1 µM.

`O=C(/C=C/c1cccc(Oc2ccnc(C3=NCCN3)c2)c1)Nc1cccc(Cl)c1` [Compound B-10, (2E)-N-(3-chlorophenyl)-3-(3-{[2-(4,5-dihydro-1H-imidazol-2-yl)pyridin-4-yl]oxy}phenyl)acrylamide] came in with an IC50 of 1 to 10 µM.

`O=C(Nc1ccc(Cl)c(C(F)(F)F)c1)/C(F)=C/c1cccc(Oc2ccnc(C3=NCCN3)c2)c1` [Compound B-11, (2Z)-N-[4-chloro-3-(trifluoromethyl)phenyl]-3-(3-{[2-(4,5-dihydro-1H-imidazol-2-yl)pyridin-4-yl]oxy}phenyl)-2-fluoroacrylamide]: the IC50 was ≤ 1 µM.

Turning to `C/C(=C\c1cccc(Oc2ccnc(C3=NCCN3)c2)c1)C(=O)Nc1ccc(Cl)c(C(F)(F)F)c1` [Compound B-12, (E)-N-(4-Chloro-3-(trifluoromethyl)phenyl)-3-(3-(2-(4,5-dihydro-1H-imidazol-2-yl)pyridine-4-yloxy)phenyl)-2-methylacrylamide], the IC50 is ≤ 1 µM.

In the case of `C/C(=C\c1cccc(Oc2ccnc(C3=NCCN3)c2)c1)C(=O)Nc1cccc(C(C)(C)C)c1` [Compound B-139, (2E)-N-(3-tert-butylphenyl)-3-(3-{[2-(4,5-dihydro-1H-imidazol-2-yl)pyridin-4-yl]oxy}phenyl)-2-methylacrylamide], the IC50 was ≤ 1 µM.

Consider `CC(C)(C)c1cccc(NC(=O)/C(=C/c2cccc(Oc3ccnc(C4=NCCN4)c3)c2)CO)c1` [Compound B-140, (E)-N-(3-tert-butylphenyl)-3-(3-(2-(4,5-dihydro-1H-imidazol-2-yl)pyridin-4-yloxy)phenyl)-2-(hydroxymethyl)acrylamide], for which the IC50 is ≤ 1 µM.
